Data taken from PubChem BioAssay AID504832 (National Center for Advancing Translational Sciences (NCATS), 2011).
Screen size: about 310,000 compounds; about 18,000 (5.8%) were called active. Inconclusive means that the source gave no clear call. Such entries were picked first, then a sample of the others. Calls follow the shape of the dose curve; as a rule, active = well fitted inhibition curve with a large enough effect; inconclusive = small, poorly fitted or top-dose-only effect, or another doubt; inactive = no such curve, though single readings can be large or run the other way. No potency is given beside an inconclusive call; the fits are too rough.

assay: Primary qHTS for delayed death inhibitors of the malarial parasite plastid, 48 hour incubation; conditions: P. falciparum luciferase growth in erythrocytes; series mostly up to 28.7 µM; activity change, negative = inhibition: at the top concentration
Summary of the method: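 In quantitative HTS format, infected erythrocytes bearing luciferase-reporter parasites were treated for a single generation at 37 C. Luminescence after adding detection reagent served as the growth measure.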
% is scaled to controls: 0 for no effect and ±100 for the full control effect; potency is read from the fitted curve at half-maximal effect; tags tell the direction and shape of the fitted curve.

Row | SMILES | activity change, negative = inhibition | Potency
1 | N#Cc1c2n(c(=S)n(-c3ccccn3)c1=O)CCCCC2 | inactive: 12.3% | –
2 | Clc1ccccc1OCCCCn1ccnc1 | – | inconclusive [inhibitor, single point]
3 | N#Cc1cc(Oc2cccc3cccnc23)c(-n2nnc3ccccc32)cc1C#N | – | active: 1.85 µM
4 | Cc1ccc(N/N=C(\C#N)C(=N)N2CCCCCC2)cc1 | inactive: 403% | –
5 | CC1(C)C2CCC1(C)C(OC(=O)CSc1nc(N)cc(=O)[nH]1)C2 (configuration not stated) | – | inconclusive [inhibitor, single point]
6 | CCN1CC2C3CCC(C)(O3)C2C1 (configuration not stated) | – | inconclusive [inhibitor, partial curve, poor fit]
7 | COCCN(C(=O)Cc1cccs1)C(C(=O)NCc1ccc(OC)cc1)c1ccccc1 (configuration not stated) | – | inconclusive [inhibitor, single point]
8 | CCn1c(=O)n(CC)c2cc(S(=O)(=O)N3CCCCC3)c(C)cc21 | – | inconclusive [inhibitor, partial curve, poor fit]
9 | c1coc(CNc2nc(N3CCCCC3)nc3ccccc23)c1 | – | active: 6.57 µM
10 | Cc1ccc(Cn2nnc3c(=O)n(CC(=O)c4ccccc4)cnc32)cc1 | inactive: -10.6% | –
11 | CN(C)c1ccc(/C=C/c2ccc3c4ccccc4ccc3[n+]2-c2ccccc2)cc1 | – | active: 8.28 µM
12 | Cc1ccc2c(COC(=O)c3c(C)noc3C)cc(=O)oc2c1 | inactive: 0% | –
13 | COC(=O)c1ccc(CN2C(=O)C3CCCCC3C2=O)o1 (configuration not stated) | – | active: 3.29 µM
14 | COc1cc2c(cc1OC)CN(C1CCC(C)CC1)CC2 (configuration not stated) | – | inconclusive [inhibitor, full curve, poor fit]
15 | Cc1ccccc1NC1=NC(=S)N(c2ccccc2)C12CCOC(C)(C)C2 (configuration not stated) | – | inconclusive [inhibitor, partial curve, poor fit]
16 | CC(C)N=c1c([N+](=O)[O-])nn(C)n1O | inactive: 9.6% | –
17 | Cc1ccc2c(c1)[nH]c1c(N3CCN(Cc4ccccc4)CC3)ncnc12 | – | active: 0.522 µM
18 | COc1ccc(C(=O)N2CCN(Cc3cn[nH]c3-c3ccc(OC)cc3F)CC2)cc1 | – | inconclusive [inhibitor, partial curve, poor fit]
19 | Nc1nc2nc[nH]c2c(=O)[nH]1 | – | inconclusive [inhibitor, single point]
20 | CCOC(=O)NC(=O)c1cn(Nc2ccccc2C(F)(F)F)c(=O)[nH]c1=O | inactive: 7.65% | –
21 | O=C(Cc1c(F)c(F)c(F)c(F)c1F)Nc1nc(-c2ccccc2)cs1 | inactive: -10.7% | –
22 | COc1cc(/C=N/NC(=O)c2ccc(O)cc2)ccc1Oc1ccc([N+](=O)[O-])cn1 | – | inconclusive [inhibitor, full curve]
23 | COc1ccccc1/C=C/C(=O)NC(=S)N(C)C1CCCCC1 | – | inconclusive [inhibitor, single point]
24 | Cc1cc(C(=O)OCC(=O)NC2CCCC2)c2ccccc2n1 | inactive: 15.3% | –

Row | SMILES | activity change, negative = inhibition | Potency
25 | Cc1ccccc1CSCCNC(=O)CN(c1ccc2c(c1)OCO2)S(C)(=O)=O | – | inconclusive [inhibitor, single point]
26 | O=C(c1cc2ccccc2o1)N(Cc1ccco1)Cc1cccs1 | – | inconclusive [inhibitor, single point]
27 | CC(=NCCN1CCN(C(=S)Nc2ccccc2)CC1)C1=C(O)CC(C)(C)CC1=O | – | inconclusive [inhibitor, single point]
28 | COc1cc(C(=O)NNC(=S)NC(=O)c2ccccc2C)cc(OC)c1OC | inactive: -3.9% | –
29 | CC(C)OCCCNC(=O)c1ccc(NC(=O)C2CCCO2)cc1 (configuration not stated) | inactive: 16.5% | –
30 | COCCOC1CCN(C(=O)C2CCC(=O)N(Cc3cccc(F)c3)C2)CC1 (configuration not stated) | inactive: 14% | –
31 | COC(=O)CN(c1nc(C)cc(OC)n1)S(=O)(=O)c1ccc(C)cc1 | – | inconclusive [inhibitor, partial curve, poor fit]
32 | CC(=O)c1ccc(OCCCC(=O)OCc2nnc(-c3ccc(Cl)cc3)o2)cc1 | inactive: -9.26% | –
33 | COc1ccc([C@@H]2C[C@H]3CN(c4ccccc4)C(=O)[C@]34CCCN24)c(OC)c1OC | – | inconclusive [inhibitor, full curve]
34 | COC(=O)c1sccc1-c1ccc(/C=N/OC(=O)c2cccs2)o1 | – | inconclusive [inhibitor, single point]
35 | COc1ccc(N=C2S/C(=C\c3ccc(OC(C)C(=O)O)c(OC)c3)C(=O)N2CCc2c[nH]c3ccccc23)cc1 (configuration not stated) | – | inconclusive [inhibitor, full curve]
36 | CN(c1cccc(NC(=O)CN(c2ccc(C34CC5CC(CC(C5)C3)C4)cc2)S(C)(=O)=O)c1)S(C)(=O)=O | – | inconclusive [inhibitor, partial curve, poor fit]
37 | N#CCC(=O)N1CC2(CC(c3cccc(NC(=O)COc4ccc(Cl)cc4)c3)=NO2)C[C@@H]1C(N)=O (some centres not stated) | inactive: 23.9% | –
38 | O=S1(=O)CCC(NC(=S)N2CCOCC2)C1 (configuration not stated) | inactive: -23.6% | –
39 | COc1ccccc1N1CCN(C(=O)c2nn(-c3ccccc3OC)c(=O)c3ccccc23)CC1 | – | active: 9.28 µM
40 | O=C(NNC(=S)NC(=O)c1cn(-c2ccccc2)nc1-c1ccccc1)c1ccncc1 | – | inconclusive [inhibitor, single point]
41 | CC(=O)Nc1c2c(nn1-c1ccc(C)cc1C)CSC2 | – | inconclusive [inhibitor, single point]
42 | Cc1cccc(CC2S/C(=N/N=C/c3ccco3)NC2=O)c1 (configuration not stated) | – | inconclusive [inhibitor, single point]
43 | CCCN(C(=O)CCl)C1=CCCCC1 | – | inconclusive [inhibitor, partial curve, poor fit]
44 | Cc1ccc(-c2nnc(SCC(N)=O)n2C)cc1 | inactive: 19.3% | –
45 | Cc1cc(C(=O)CSc2nc(N)cc(N)n2)c(C)n1CCc1ccc(F)cc1 | – | inconclusive [inhibitor, single point]
46 | CC1(c2ccc3c(c2)OCO3)NC(=O)N(CC(=O)Nc2ccccc2[N+](=O)[O-])C1=O (configuration not stated) | – | inconclusive [inhibitor, partial curve, poor fit]
47 | COc1ccc(CCNC(=O)CCn2c(=O)c3cccn3c3ccc(F)cc32)c(OC)c1OC | – | inconclusive [inhibitor, single point]
48 | O=c1c2cnn(-c3ccc(F)cc3)c2ncn1Cc1ccccc1 | inactive: -8.4% | –

Row | SMILES | activity change, negative = inhibition | Potency
49 | CC(C)(C)OC(=O)N1CCN(C(=O)c2cccnc2Cl)CC1 | inactive: 5.88% | –
50 | Cc1nn2c(NCc3ccccn3)c3c(nc2c1-c1ccccc1)CCC3 | – | inconclusive [inhibitor, full curve]
51 | COc1ccc(CCn2c(C)cc(C(=O)CN3C(=O)C(=O)N(Cc4ccco4)C3=O)c2C)cc1 | – | inconclusive [inhibitor, single point]
52 | COc1cc(C(=O)N(CCc2ccccc2)C2=CC3CCC(C2)N3C)cc(OC)c1OC (configuration not stated) | – | inconclusive [inhibitor, single point]
53 | O=C1NC(c2cccnc2)Nc2sc3c(c21)CCCC3 (configuration not stated) | inactive: 105% | –
54 | CC(C)(C)OC(=O)N[C@@H](Cc1ccccc1)C(=O)N[C@@H](CO)[C@H](O)[C@@H]1C[C@@H]1C(=O)NC1CC1 | inactive: -0.973% | –
55 | COc1ccc(S(=O)(=O)N(CC(=O)NCc2ccccn2)c2ccc(Cl)cc2)cc1 | – | active: 10.4 µM
56 | N#C/C(=C\c1c(Oc2ccc(Cl)cc2)nc2ccccn2c1=O)C(=O)NC1CCS(=O)(=O)C1 (configuration not stated) | inactive: 0% | –
57 | Cc1ccc2oc(-c3ccc(NC(=O)CC(C)C)cc3)nc2c1 | inactive: 152% | –
58 | COc1ccc(C(O)(CCC(C)C)C(CN2CCOCC2)c2ccc(Cl)cc2)cc1 (configuration not stated) | – | active: 1.65 µM
59 | Cc1cc2c(cc1S(=O)(=O)NCc1ccc(N(C)C)cc1)OCC(=O)N2 | inactive: -16.4% | –
60 | Cc1ccccc1-n1nnnc1SCC(=O)c1c(N)n(C)c(=O)n(C)c1=O | – | inconclusive [inhibitor, partial curve, poor fit]
61 | O=C(C1CCN(S(=O)(=O)c2ccccc2[N+](=O)[O-])CC1)N1CCOCC1 | inactive: 0.64% | –
62 | CCOCCn1ccc2c(OCC(=O)NCCc3ccc(OC)c(OC)c3)cccc2c1=O | – | inconclusive [inhibitor, partial curve, poor fit]
63 | COc1ccc(NC(=O)CCc2nnc3ccc(N4CCC5(CC4)OCCO5)nn23)cc1 | inactive: 11.1% | –
64 | O=C(NCCN1CCOCC1)c1ccc2c(c1)N(Cc1ccccc1F)C(=O)c1ccccc1S2 | – | inconclusive [inhibitor, partial curve, poor fit]
65 | Cc1ccc(C)c(N2C(=O)c3cc(N4CCOCC4)c([N+](=O)[O-])cc3C2=O)c1 | inactive: 5.3% | –
66 | Cc1nn(Cc2ccccc2Cl)c(C)c1NC(=O)CCCn1nc(C)c([N+](=O)[O-])c1C | – | inconclusive [inhibitor, full curve, poor fit]
67 | COc1ccc2cc(S(=O)(=O)N3CCN(C)CC3)ccc2c1 | – | inconclusive [inhibitor, single point]
68 | NC(=S)N/N=C/c1ccccc1OC(=O)c1cc2ccccc2oc1=O | – | active: 0.329 µM
69 | O=C(COc1ncnc2ccccc12)c1ccc(Cl)cc1 | inactive: 0% | –
70 | CCOC(=O)C1=C(N)OC2=C(C(=O)CCC2)C1c1ccco1 (configuration not stated) | – | inconclusive [inhibitor, full curve, poor fit]
71 | CC(C)(C)c1ccc(OCC(=O)NCC(c2cccs2)N2CCOCC2)cc1 (configuration not stated) | – | inconclusive [inhibitor, single point]
72 | CCCc1nnc(NC(=O)CCC(=O)N2CCN(CCn3c(C)ccc3C)CC2)s1 | – | inconclusive [inhibitor, single point]
